SMILES strings stand for the structures. The whole screen tested about 150,000 compounds, of which about 540 (0.36%) showed an effect of 50% or more. Some of the results follow.

The subject of this test is Plasmodium falciparum. The test is described as follows: Primary screen in NF54 nanoGlo assay, in single point, at 2uM, 72h; a lower Z score goes with more inhibition. It is filed as functional, Erythrocyte. The following applies: timepoint 72 hour.
As to `CCCN(Cc1nc(C2CC2)no1)CC1CC1`, the % Inhibition – broadly, the drop in the measured response relative to a control, in per cent – is -7% and the Z score stood at 1.02.
On to `CC(C)[C@H](NC(=O)c1ccco1)C(=O)N1CCN(C)c2ccccc21`, for which the “% Inhibition” value is on record as -2% and the Z score is 0.19.
The like results for `O=C(Nc1ccsc1-c1nnc(C2CC2)o1)c1cc(F)ccc1F` were, in that order, -9% and 0.95.
Taken in the same sequence, the figures for `O=C(CS(=O)(=O)[C@H]1CCc2c(F)cc(F)cc21)Nc1ccccc1Cl` were -4% and 0.59.
Consider `COc1ccccc1NC(=O)c1ncoc1-c1ccco1`, for which the “% Inhibition” value is on record as -4% and the Z score turned out to be 0.39.
Consider `CCOC1CC(NC(C)C(=O)N(C)Cc2cccc(F)c2)C12CCCC2` (stereo not given), for which the “% Inhibition” value was found to be 4% and the Z score is listed as -0.62.
On to `CC(C)c1ccc(N2C(=O)CN(Cc3ccccc3Cl)C3CS(=O)(=O)CC32)cc1` (stereo not given), for which the “% Inhibition” value was -5% and the Z score is reported as 0.65.
With `COc1ccc(CN2CCN(C)CC2)cc1NC1CCC(OC)CC1` (stereo not given), the “% Inhibition” value is -20% and the Z score was 2.17.
The like results for `CN(C)[C@@H]1C[C@@H](CO)N(Cc2ccccc2OCc2c(F)cccc2Cl)C1` were, in that order, -6% and 0.7.
The like results for `CC(=O)N1CCC([C@@H]2CN(C(=O)Cc3ccsc3)C[C@H]2CO)CC1` were, in that order, -2% and 0.22.
Taken in the same sequence, the figures for `COCCNC(=O)c1ccc(-c2nc(CN3CCc4ccccc43)c(C)o2)cc1` were -6% and 0.73.
On to `CO[C@H]1CCN(C(=O)Nc2cc(C)nn2Cc2cccc(Cl)c2)C1`, for which the “% Inhibition” value is 1% and the Z score is recorded as -0.21.
The like results for `Cc1cccc(CC2(N[C@@H]3c4ccccc4C4(CCNCC4)[C@H]3O)CC2)c1` were, in that order, -13% and 1.25.
On to `Cc1cc2cc(C(=O)NCc3nnc(C4CC4)o3)oc2cc1C`, for which the “% Inhibition” value is listed as 27% and the Z score is listed as -3.49.
The like results for `CN(CCc1ccccc1)c1cc(C2CC(N)C2)ncn1` (stereo not given) were, in that order, -10% and 1.35.
Taken in the same sequence, the figures for `CN1CCC[C@@H]1CCNc1cc(-c2ccncc2)nc2ccnn12` were 3% and -0.41.
The like results for `COCc1ccc(C(=O)N[C@H]2COCC[C@@H]2O)o1` were, in that order, -15% and 2.34.
For `C#CCN(C)S(=O)(=O)c1cc(C)c(Cl)s1`, the “% Inhibition” value was -12% and the Z score is 1.26.
As to `CCc1ccnc(C(=O)NC2(c3ncon3)CCC2)c1`, the “% Inhibition” value is -7% and the Z score amounted to 1.14.
The like results for `Cc1nc2c(c(NCc3cc(CC(C)C)on3)n1)CNC2` were, in that order, -1% and 0.25.
For the compound `CN(CCn1cccn1)C(=O)C1CCN(Cc2ccco2)CC1`, the “% Inhibition” value was -1% and the Z score was 0.13.
Taken in the same sequence, the figures for `OCCCn1nc(C2(c3ccccc3)CC2)nc1CCc1cccnc1` were -18% and 1.62.
As for `O=C(C[C@@H]1Nc2ccccc2NC1=O)Nc1ccc(F)cc1`, the “% Inhibition” value came to 2% and the Z score was -0.29.
Regarding `CC[C@@H](C(N)=O)N(C(=O)c1cc(O)nc2ccccc12)c1ccccc1`, the “% Inhibition” value is -16% and the Z score stood at 1.35.
For `NC(=NCCc1cccnc1)Nc1cccc(Oc2ccccc2)c1`, the “% Inhibition” value stood at 1% and the Z score is -0.07.
On to `COc1ccc([C@H](C)NC(=O)c2nnn3c2c(=O)[nH]c2cc(C)ccc23)cc1`, for which the “% Inhibition” value is listed as -3% and the Z score is recorded as 0.62.
Taken in the same sequence, the figures for `Cc1nc(NCc2nnc3n2CCCC3)c2sccc2n1` were -12% and 1.53.
As to `Cc1cccc(C(=O)N[C@H]2CCN(c3ccccc3)C2=O)c1`, the “% Inhibition” value amounted to 39% and the Z score is reported as -5.29.
Consider `Nc1nc(O)cc(-c2cccc(C(=O)NCCc3nc4c(s3)CCC4)c2)n1`, for which the “% Inhibition” value is -14% and the Z score turned out to be 1.26.
The like results for `CO[C@H]1C[C@H](NC(=O)Nc2cc(-n3cccn3)ccc2C)C1` were, in that order, -14% and 2.56.
Taken in the same sequence, the figures for `CC(C)c1nccc(C(=O)NCCc2nc3c(s2)CCC3)n1` were -7% and 1.46.
The like results for `Cc1n[nH]cc1CNC(=O)[C@@H](O)c1ccccc1` were, in that order, 4% and -0.61.
As for `CCO[C@H]1CN(C)C[C@@H]1n1cnc2ccc(OC)cc2c1=O`, the “% Inhibition” value was -2% and the Z score is given as 0.45.
The like results for `O=C(NCc1ccc(F)cc1)N1CCCC[C@H]1c1noc(COc2ccc(F)cc2)n1` were, in that order, -12% and 1.53.
With `Cc1cc(CC(=O)NC2(C)CCCCCC2)no1`, the “% Inhibition” value is given as -6% and the Z score came out at 0.56.
The like results for `Cc1ccc2ncc(CN(C)[C@@H](C)c3cccnc3)n2c1` were, in that order, -1% and 0.15.
`Cc1nc(N2CCOCC2)c2c(C(=O)N3CCN(c4cccc(Cl)c4)CC3)c(C)oc2n1`: the “% Inhibition” value was -3% and the Z score turned out to be 0.6.
Taken in the same sequence, the figures for `Nc1c(Cl)cc(Cc2noc([C@H]3CCCOC3)n2)cc1Cl` were -5% and 0.63.
Consider `Cc1ccc([C@H](C)NC(=O)[C@H]2CC[C@@H](O)CC2)cn1`, for which the “% Inhibition” value is -2% and the Z score is reported as 0.37.
Turning to `Cc1c(Br)ccc(F)c1C(=O)N1CCn2ncnc2C1`, the “% Inhibition” value was 3% and the Z score was -0.34.
Taken in the same sequence, the figures for `Cc1cc(C)n(C)c(=O)c1C(=O)N1C[C@@H]2CC[C@H]1CN(Cc1ccccc1)C2` were 1% and -0.08.
Consider `O=C(NCc1cccs1)N1CCOCC1CC(O)c1ccccc1` (stereo not given), for which the “% Inhibition” value stood at 4% and the Z score is -0.7.
Taken in the same sequence, the figures for `Cc1cccc(-n2nc(C)c3sc(N4CCCN(C(=O)c5cc(F)ccc5F)CC4)nc32)c1` were -5% and 0.84.
With `CCN1C(=O)CN(C(=O)c2cccnc2)CC12CCOCC2`, the “% Inhibition” value was -5% and the Z score worked out at 0.7.
The like results for `Cc1cccnc1NC(=O)C(F)(F)[C@@]1(F)OC(F)(F)C(F)(F)C1(F)F` were, in that order, -28% and 3.29.
The like results for `CN(C[C@H]1COc2ccccc2O1)C(=O)c1cccc(-n2ccnc2)c1` were, in that order, -10% and 0.94.
Taken in the same sequence, the figures for `NC(=O)c1cnc2n1CCN(C(=O)c1cnn3ccccc13)C2` were 1% and -0.23.
In the case of `O=C(NCc1ccc(F)cc1)[C@@]1(CCO)CCN(Cc2ccccc2)C1`, the “% Inhibition” value is -7% and the Z score is 1.4.
The like results for `O=C1OC2(CCN(S(=O)(=O)c3c(F)cccc3F)CC2)c2ccccc21` were, in that order, -2% and 0.46.
For `O=C(Cc1ccc(-c2ccccc2)cc1)N[C@@H]1COC2(CCNCC2)C1`, the “% Inhibition” value came to 5% and the Z score was -0.67.
With `CC(C)c1ccc(NC(=O)N2CCC(C3CCOC3)C2)cc1F` (stereo not given), the “% Inhibition” value is recorded as -9% and the Z score is 1.25.
Taken in the same sequence, the figures for `CN(Cc1ccccn1)C(=O)[C@@H]1CC(c2cc(F)ccc2F)=NO1` were -2% and 0.22.
Taken in the same sequence, the figures for `CN(Cc1ccco1)c1ccc(-c2nc(-c3ccc(F)cc3)no2)cn1` were 5% and -0.59.
Taken in the same sequence, the figures for `CC(=O)N1CCC([C@@H]2CN(C(=O)c3cccc(C)n3)C[C@H]2COc2ccccc2)CC1` were -3% and 0.3.
Turning to `CN(C[C@H]1CC(=O)N(C(C)(C)C)C1)c1ncnc2[nH]ccc12`, the “% Inhibition” value is recorded as -4% and the Z score came to 0.62.
The like results for `Fc1ccccc1[C@@H]1C=C(c2ccncc2)Nc2nc(C(F)(F)F)nn21` were, in that order, 14% and -1.67.
The like results for `Cn1cc(S(=O)(=O)N2CCCCCC2)cc1C(=O)Nc1ccc2c(c1)OCCO2` were, in that order, -1% and 0.09.
Taken in the same sequence, the figures for `Cc1cc(C)nc(NCCC(=O)Nc2ccccn2)n1` were 2% and -0.25.
Take `CC(C)S(=O)(=O)CC(=O)NCCOc1ccc(C(C)(C)C)cc1`: the “% Inhibition” value is given as -20% and the Z score turned out to be 1.81.
Taken in the same sequence, the figures for `Nc1c2c(nn1[C@H]1CCS(=O)(=O)C1)CCCC2` were 15% and -1.95.
Taken in the same sequence, the figures for `CCC(CC)C(=O)NC(C)C(O)Cc1ccccc1` (stereo not given) were -1% and 0.09.
As to `CC(C)C(=O)N1CCN(c2cc(-n3ccnc3)ncn2)CC1`, the “% Inhibition” value was -14% and the Z score came to 1.9.
The like results for `COC1CCC(CC(=O)Nc2cc(-c3nnn[nH]3)ccc2F)CC1` (stereo not given) were, in that order, -5% and 0.62.
The like results for `Cc1nc(N2CCC(C)CC2)ncc1-c1cc(=O)[nH]c(NCc2ccccc2)n1` were, in that order, 36% and -4.7.
On to `CC[C@H](NS(=O)(=O)Cc1cc(F)ccc1Cl)C1CC(O)C1` (stereo not given in full), for which the “% Inhibition” value was -8% and the Z score turned out to be 1.02.
The like results for `Cc1cc(C(=O)NCCn2c(C)cnc2-c2cccnc2)nn1C` were, in that order, 7% and -1.33.
Take `CCC(=O)Nc1ccc2c(c1)CN(C(=O)COc1ccccc1)[C@H](C(=O)N1CCCC1)C2`: the “% Inhibition” value is reported as -5% and the Z score worked out at 0.76.
The like results for `O=C(Nc1ccccc1)OC1CS(=O)(=O)CC1OC(=O)Nc1ccccc1` (stereo not given) were, in that order, 6% and -0.79.
For the compound `CCC(O)C1CCCCN1CCS(=O)(=O)C(C)C` (stereo not given), the “% Inhibition” value is -6% and the Z score worked out at 0.84.
`Cc1nnc(N2CCN(CC(F)(F)F)C[C@H](C)C2)nc1C`: the “% Inhibition” value is recorded as -7% and the Z score amounted to 0.87.
The like results for `O=C1CCc2cc(NC(=O)[C@@H]3CC=CCC3)ccc2N1` were, in that order, -7% and 1.09.
Taken in the same sequence, the figures for `Cc1ccc(NC(=O)CS(=O)(=O)CCC(F)(F)F)c(C)c1` were -7% and 1.18.
The like results for `Cc1nc(CN2CC[C@@H](C(=O)O)c3ccccc32)sc1C` were, in that order, -2% and 0.21.
In the case of `CCO[C@H]1COC[C@@H]1NC(=O)c1ccn(C)c1C`, the “% Inhibition” value is listed as -20% and the Z score was determined as 2.51.
Consider `CCO[C@H]1C[C@H](NC(=O)Nc2ccnnc2)C1`, for which the “% Inhibition” value is -5% and the Z score came out at 0.75.
Turning to `Cc1n[nH]c(C(=O)NCC[C@H]2CCC3(CCC3)O2)c1O`, the “% Inhibition” value is on record as 3% and the Z score is -0.54.
Regarding `CCCn1cc(CN/C(=N\c2ccc(OCC)cc2)NC(=O)c2ccc3c(c2)OCO3)c(C)n1`, the “% Inhibition” value was -7% and the Z score worked out at 1.24.
With `CC(=O)N[C@H](c1nc(CC(C)C)n[nH]1)C(C)C`, the “% Inhibition” value came to 8% and the Z score is recorded as -1.04.
The like results for `CC(C)(C)c1ccc(OCc2n[nH]c(C3(CO)CC3)n2)cc1` were, in that order, 13% and -1.77.
With `CN(C)C(=O)CNc1c(Cl)cccc1Cl`, the “% Inhibition” value was -15% and the Z score stood at 1.31.
As to `CC(C)C[C@]1(CO)CCCN1C(=O)NCC(C)(C)c1cccs1`, the “% Inhibition” value is reported as -7% and the Z score is recorded as 1.19.
Taken in the same sequence, the figures for `Cc1cc(C)nc(-c2cccc(C(=O)N(C)C[C@H]3COc4ccccc4O3)c2)c1` were -1% and 0.14.
Regarding `Cc1ccc(NC(=O)c2cc(CN3CCCC3)on2)c(Cl)c1`, the “% Inhibition” value is given as -5% and the Z score amounted to 0.88.
The like results for `CN(C)C(=O)NC1CCC(=O)NC1C1CCCO1` (stereo not given) were, in that order, -10% and 1.17.
The like results for `Cc1cccc(NC(=O)C(=O)N2CC[C@H](O)[C@@H](O)C2)c1C` were, in that order, 0% and -0.07.

(Values after ChEMBL document CHEMBL4888484, “Replenishing the malaria drug discovery pipeline: Screening and hit evaluation of the MMV Hit Generation Library 1 (HGL1) against asexual blood stage Plasmodium falciparum ,using a nano luciferase reporter read-out” (2022).)
